Source: paper PMC11809610, “Advanced multiparametric image spectroscopy and super-resolution microscopy reveal a minimal model of CD95 signal initiation” (Science Advances, 2024)

Biological target: the molecule itself
Assay: FRET or BRET; CELFIS (FRET-FLIM, donor lifetime, x_FRET for each cell) in live HeLa CD95^KO cells with bicistronic mCherry/mEGFP plasmids; no ligand; evaluated from 30 up to 1000 receptors/μm^2; 37°C

B1: CTLA4 (cytotoxic T lymphocyte-associated protein 4) without the last 23 amino acids, fused C-terminally to mEGFP or mCherry (receptor)
chain: not shown
notes: also called CTLA4DA; dimer control; not shown: mEGFP (donor copy) or mCherry (acceptor copy), C-terminal, kept
stoichiometry N: 2
